Consider seven compounds from the supplement of paper PMC4604168 (melanoma cell lines).

The structures appear in SMILES notation. The list shows a part of the results. Single values are uncertain, as repeats are few or missing.
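Further: cell number obtained by counting DAPI-stained nuclei in high-throughput microscope images with image analysis software, screen run in 1,536-well plates.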

The subject of the assay is G361. Description: cell count relative to DMSO control; melanoma cells; higher = more viable cells. Conditions: library dose: low library concentration; 72 h.
`Cn1cnc2c(F)c(Nc3ccc(Br)cc3Cl)c(C(=O)NOCCO)cc21` [selumetinib] + CCCCCCCCc1ccc(CCC(N)(CO)CO)cc1 [fingolimod] (first compound 0.015 µM, partner dose 2 µM) had a cell count of 98.2%. The result for `CCN(CC)CCNC(=O)c1c(C)[nH]c(/C=C2\C(=O)Nc3ccc(F)cc32)c1C` [sunitinib] + CN1CCN(c2ccc3nc(-c4c(N)c5c(F)cccc5[nH]c4=O)[nH]c3c2)CC1 [Dovitinib] (first compound 0.4 µM, partner dose 0.1 µM) reads 97.5%; that for `Cn1cnc2c(F)c(Nc3ccc(Br)cc3Cl)c(C(=O)NOCCO)cc21` [selumetinib] + Cn1c(Nc2ccc(C(F)(F)F)cc2)nc2cc(Oc3ccnc(-c4ncc(C(F)(F)F)[nH]4)c3)ccc21 [CHIR265] (first compound 0.015 µM, partner dose 0.08 µM), 55.1%. For the compound `COc1cc([C@@H]2c3cc4c(cc3[C@@H](O[C@@H]3O[C@@H]5CO[C@@H](C)O[C@H]5[C@H](O)[C@H]3O)[C@H]3COC(=O)[C@H]23)OCO4)cc(OC)c1O` [etoposide] + O=C(Nc1cc(C(F)(F)F)cc(C(F)(F)F)c1)c1cc(Cl)ccc1O [IMD0354] (first compound 0.02 µM, partner dose 0.016 µM), the cell count is 102%.

In turn, `CCN(CC)CCNC(=O)c1c(C)[nH]c(/C=C2\C(=O)Nc3ccc(F)cc32)c1C` [sunitinib] + CC(=O)O[C@@]12CO[C@@H]1C[C@H](O)[C@@]1(C)C(=O)[C@H](O)C3=C(C)[C@@H](OC(=O)[C@H](O)[C@@H](NC(=O)OC(C)(C)C)c4ccccc4)C[C@@](O)([C@@H](OC(=O)c4ccccc4)[C@H]21)C3(C)C [Docetaxel] (first compound 0.4 µM, partner dose 0.0001 µM) had a cell count of 30.5%. `C[C@]1(O)C[C@@H](c2nc(-c3ccc4ccc(-c5ccccc5)nc4c3)c3c(N)nccn32)C1` + CN1CCN(c2ccc3nc(-c4c(N)c5c(F)cccc5[nH]c4=O)[nH]c3c2)CC1 [Dovitinib] (first compound 0.4 µM, partner dose 0.1 µM): the cell count came out at 78%. On to `C[C@]1(O)C[C@@H](c2nc(-c3ccc4ccc(-c5ccccc5)nc4c3)c3c(N)nccn32)C1` + CC(C)C[C@H](NC(=O)[C@H](Cc1ccccc1)NC(=O)c1cnccn1)B(O)O [Bortezomib] (first compound 0.4 µM, partner dose 0.001 µM), for which the cell count amounted to 58%.
